Results: PMC6436938 (Molecular Cell, 2019)

Target: importin β (Impβ) (human, UniProt Q14974)
Test: pull-down

- binding result: binds
B1: His-tagged H1.0 globular domain (H1g, aas […]) (domain or fragment)
chain: not shown
